Measured values from PubChem BioAssay AID1963576 (National Center for Advancing Translational Sciences (NCATS), 2024).
In all, about 46,000 compounds went through this assay and about 60 (0.1%) were called active. Not shown: some 3% with an inconclusive outcome. The call rests on the fitted dose curve; in most records, active means well fitted inhibition curve with a large enough effect; inconclusive means small, poorly fitted or top-dose-only effect; inactive means no such curve, though single readings can be large or run the other way. The list shows a part of the results.

Assay: Primary qHTS assay for Inhibitors of ovarian cancer metastasis using an organotypic tumor microenvironment (TME) model. Further: nearly all actives have a fitted effect of over 65% in size.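 On activity change, negative = inhibition: plate controls were DMSO wells for no effect and tomatine positive control wells for full effect.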
Details: SKOV3ip1-GFP adhesion/invasion on 3D omental model, fluorescence; series mostly up to 45.8 µM; activity change, negative = inhibition: at the top concentration
Method in brief: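 A 3D layer of primary human omental fibroblasts, mesothelial cells, fibronectin and collagen I, grown 48 hr, received SKOV3ip1-GFP cells in serum-free medium plus compounds at 0.36-46 umol/L. After 2 hr RT and 16 hr 37 C, fixed adherent GFP cells were counted; normalized to DMSO and tomatine.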

Activity change, negative = inhibition, inactive:
COCCn1cc(C(=O)NCCCOC(C)C)c2c3ccccc3n(C)c2c1=O 0.987%
COc1ccc(CNC(=O)Cc2ccc(NC(=O)N3CCSc4ncccc43)cc2)cc1 -3.12%
COc1ccccc1NC(=O)CSC1=Nc2ccccc2C2=NC(CC(=O)NCc3ccccc3)C(=O)N12 (stereo not given) -9.48%
Cn1c(=O)c2c(nc(N3CCOCC3)n2Cc2ccc(Br)cc2)n(C)c1=O 83.4%
CCOc1ccc(NC(=O)C2CCCN(c3nnc(C)c4c(C)n(-c5ccccc5)nc34)C2)cc1 (stereo not given) -2.58%
CCOC(=O)Cn1c(=O)n(C2CCCCC2)c2nc(-c3ccc(C(C)C)cc3)nc(C(N)=O)c21 -8.01%
Cc1ccc2c(CN3CCN(C(=O)c4ccc(Br)cc4)CC3)cc(=O)oc2c1 1.43%
Cc1ccc(S(=O)(=O)N2CCc3cc(C(=O)Nc4c(F)cccc4F)ccc32)cc1 2.82%
CCC(C(=O)N1CCN(c2cc(C)ccc2C)CC1)n1nc(C)n2c(cc3occc32)c1=O (stereo not given) 81.1%
O=C(CSc1ccc(-c2ccccn2)nn1)Nc1ccc(F)cc1F 5.75%
Cc1ccc(CN2CCN(C3CCNCC3)C(=O)C2=O)cc1 -10.2%
CC(=O)N1CCc2cc(S(=O)(=O)NC(Cc3ccccc3)C(=O)NCc3ccc(C)cc3)ccc21 (stereo not given) 3.88%
O=C(Nc1ccc(Br)cc1)c1ccc(F)c(S(=O)(=O)N2CCc3ccccc32)c1 -8.58%
CC(=O)N1CCc2cc(CNC(=O)c3ccccc3Br)ccc21 6.8%
Cc1ccc(CN2CCN(C3CCN(C(=O)Nc4ccc(C)cc4Cl)CC3)C(=O)C2=O)cc1 0.355%
CCCCNS(=O)(=O)c1ccc(C)c(-c2nnc3c4ccccc4c(C)nn23)c1 -5.13%
CNS(=O)(=O)c1cn(CC(=O)Nc2ccc(C(C)=O)cc2)cc1S(=O)(=O)NC 4.52%
Nc1ccn(C[C@@H](CO)OCP(=O)(O)O)c(=O)n1 6.19% [at 23.2 µM]
Cc1ccc(S(=O)(=O)C(CNC(=O)C(=O)NCc2ccccc2C)c2cccs2)cc1 (stereo not given) 4.95%
CCOC(=O)c1ccc(NC(=O)CCn2ccc(C)n2)cc1 -3.86%
Cc1cc(C)c(Cn2c(C3CC(=O)N(c4ccc(F)cc4)C3)nc3ccccc32)c(C)c1 (stereo not given) -0.94%
CC(C)OC(=O)c1c(-c2ccccc2)c(-c2ccccc2)nn(C)c1=O 2.4%
COc1cccc(NC(=O)CSc2nc(=O)n(Cc3ccncc3)c3c2CCC3)c1 -5.46%
CCCN1CCN(c2ncnc3sc(C(=O)Nc4c(C)cc(C)cc4C)c(C)c23)CC1 81.1%
CCOC(=O)N1CCC2(CC1)OC(=O)C(C)=C2C(=O)NCc1cccc(F)c1 -6.37%
CCC1CN(S(=O)(=O)c2cc(-c3onc(C)c3C)ccc2C)c2cc(Cl)ccc2O1 (stereo not given) 7.12%
CCc1ccc(C(=O)c2cn(CC(=O)Nc3ccc(OC)cc3)c3cc4c(cc3c2=O)OCO4)cc1 0.308%
C#CCOc1ccc(C2CC(=O)Nc3c2c(C)nn3-c2nc(C)cc(C)n2)cc1 (stereo not given) 4.39%
NS(=O)(=O)c1ccc(NC(=O)C(=O)Nc2ccc3nc4n(c(=O)c3c2)CCCCC4)cc1 -3.99%
O=C1c2c(O)cc(O)cc2OC(c2ccc(O)c(O)c2)C1O (stereo not given) -12.6%
CCCCCCSc1nnc2c(n1)OC(C)Nc1ccc(Br)cc1-2 (stereo not given) -1.04%
Cc1c(C(=O)Nc2cccc(-c3nc4ccccc4s3)c2)oc2ccccc12 -7.83%
CCOc1ccc2nc(N3CCCC(C(=O)Nc4cc(Cl)c(OC)cc4OC)C3)sc2c1 (stereo not given) 8.16%
COc1ccc(CNC(=O)c2ccc(NC(=O)N3CCSc4ccccc43)cc2)cc1 -6.48%
CSc1nn(Cc2cccc(C)c2)c(N)c1S(=O)(=O)c1ccccc1 -0.75%
COc1ccc(Nc2nccc(NCCO)n2)cc1 -9.77%
Cc1ccc2nc(-c3ccc(NC(=O)c4ccc(S(C)(=O)=O)cc4)cc3)sc2c1 -18.2%
Cc1ccc(NC(=O)CC(C)S(=O)(=O)c2ccc3c(c2)NC(=O)CO3)c(Cl)c1 (stereo not given) -7.42%
CC(C)c1ccc2oc(-c3ccc(NC(=O)c4cccc(Br)c4)cc3)nc2c1 4.34%
CCc1ccc(CNCc2c(C(=O)O)n(Cc3ccc(C)cc3)c3cc(C)ccc23)cc1 -7.66%
COc1cc2c(=O)n(CCC(=O)NCC3CCCO3)c(=O)n(CC(=O)Nc3ccc(C)cc3C)c2cc1OC (stereo not given) -0.252%
Cc1ccccc1Cn1c2ccccc2c2cnn(CC(=O)NC3CCC(C)CC3)c(=O)c21 (stereo not given) -2.41%
Cc1ccc(C)c(N2CCN(CCCNC(=O)c3ccc4nc(N5CCC(C)CC5)sc4c3)CC2)c1 3.28%
CCc1c(C)c2cc3c(c(C)c2oc1=O)OCN(CCc1ccc(OC)c(OC)c1)C3 -2.67%
CCc1ccc(C2=NN(CCC(=O)NCCc3ccccc3)C(=O)CC2)cc1 -5.94%
COc1ccc(N(CC(=O)NCCc2ccccc2)S(=O)(=O)c2c(C)nn(C)c2C)cc1 -27%
CCc1cccc(NC(=O)C(Cc2ccccc2)NS(=O)(=O)c2cccs2)c1 (stereo not given) 0.615%
Cc1ccc(N2CCN(C(=O)Cn3ncc4c([nH]c5ccc(C)cc54)c3=O)CC2)c(C)c1 9.39%
CC(C)CC(=O)Nc1nnc(S(=O)(=O)N2c3ccccc3CC2C)s1 (stereo not given) 0.812%
CCc1nc2ccc(C(=O)N3CCN(c4cccc(Cl)c4)CC3)cc2nc1CC -0.0539%
CC(C)c1ccc(Nc2sc(C(=O)c3ccccc3)c(N)c2S(=O)(=O)c2ccccc2)cc1 -3.11%
CCOc1ccc(C(=O)NCCc2csc(-c3cccc(C)c3)n2)cc1 -4.34%
CCC1(C)CC(=O)c2c(ccc3oc(C(=O)Nc4ccc(C(C)=O)cc4)c(C)c23)O1 (stereo not given) 5.69%
COc1ccc(-c2cc3ccc(O)c(CN4CCN(C)CC4)c3oc2=O)cc1OC -1.43%
COc1cc(CNC(=O)c2cnc3c(-c4cccc(C)c4)c(C)nn3c2C)cc(OC)c1OC -1.66%
CCOc1ccc(CCNC(=O)CCCn2c(=O)c3cccn3c3cccnc32)cc1 -1.35%
Nc1cc(=O)nc(SCC(=O)Nc2ccccc2)n1CCc1ccccc1 -3.06%
COC1CCC(N(C(=O)C2CCC(C)CC2)c2cc(C3=CCCCC3)sc2C(=O)O)CC1 (stereo not given) -18.2%
CCCc1ccc(OCC(=O)Nc2sc3c(c2C(=O)OCC)CCC(C(C)(C)C)C3)cc1 (stereo not given) -9.67%
O=C(NC1CC(=O)N(c2ccc(Cl)cc2)C1)c1cc2ccccc2o1 (stereo not given) -2.6%
CC(=O)Nc1ccc(Nc2ccc3cc(S(=O)(=O)N4CCCCC4)ccc3n2)cc1 -4.01%
COc1ccc2[nH]cc(CCNC(=O)Nc3cc(C)cc(C)c3)c2c1 2.32%
O=c1c2cccnc2n(Cc2cccc(F)c2)c(=O)n1Cc1ccc(F)cc1 0.205%
Cc1ccc2nc3c(cc(C(=O)NC4CCCC4)c(=N)n3C(C)C)c(=O)n2c1 -3.27%
COc1ccccc1Nc1nc(-c2ccccc2)c(CC(=O)O)s1 -2.47%
O=C1Cc2cc(S(=O)(=O)Nc3ccc(OC(F)(F)F)cc3)cc3c2N1CCC3 -3.02%
CCOC(=O)c1c(NC(=O)C(C)Sc2cn(CCNC(=O)c3ccc(OCC)cc3)c3ccccc23)sc2c1CCC2 (stereo not given) -15.8%
O=C(O)C1=CO[C@@H](O[C@@H]2O[C@H](CO)[C@H](O)[C@H](O)[C@H]2O)[C@@H]2C(CO)=CC[C@H]12 -3.49%

outcome, inactive:
COc1ccc(NC(=O)C2CCN(c3ccc(Sc4ccc(C)cc4)nn3)CC2)c(OC)c1
O=C(NCc1cccs1)C1CCN(C(=O)N2CCOc3ccc(Cl)cc32)CC1
COc1ccc(CCNC(=O)C2CCN(S(=O)(=O)c3c(C)noc3/C=C/c3ccc(C)cc3)CC2)cc1OC
CC(C)CCN(C(=O)Nc1ccccc1)C(C)c1cccs1 (stereo not given)
Cc1cccc(NC(=O)CN2C(=O)c3cccc4cccc2c34)c1C
NC(=O)C1(N2CCCCC2)CCN(C(=O)Nc2ccc(F)cc2F)CC1
Cc1cccc(-n2ncc3c(N4CCCC(C)C4)ncnc32)c1 (stereo not given)
Cc1cccc(C(=O)N2c3nc(-c4ccco4)nn3C3(CCCCC3)[C@@H]3CCCC[C@@H]32)c1
Cc1cc(NC(=O)C2CCN(S(=O)(=O)c3cccc4nsnc34)CC2)ccc1Br
Cc1ccc(Cn2ccnc2SCC(=O)Nc2nc3ccccc3s2)cc1
O=c1ccc(-c2ccccc2)nn1Cc1ccc(F)cc1Cl
CCOC(=O)c1ccccc1NC(=O)COc1ccccc1-c1nnc(-c2ccccc2)o1
COc1cc(NC(=O)C(CC(C)C)NS(=O)(=O)c2ccc3c(c2)CCN3C(C)=O)cc(OC)c1 (stereo not given)
COc1cc2c(cc1OC)C(CC(=O)O)N(C(=O)Nc1cc(OC)c(OC)c(OC)c1)CC2 (stereo not given)
CC(=O)c1ccc(Nc2cc(C)nc3nc(Cc4ccccc4)nn23)cc1
COc1ccc(-n2c(=O)c3c4c(sc3n(Cc3ccccc3C)c2=O)CCCC4)c(OC)c1
CCCn1c2ccccc2c2cnn(CC(=O)Nc3cc(OC)c(OC)c(OC)c3)c(=O)c21
CCOCCOC(=O)c1ccc2c(c1)N(Cc1ccccc1C#N)C(=O)c1ccccc1S2(=O)=O
CCc1ccc(C(=O)COC(=O)C(NC(=O)C2CCC(C)CC2)C(C)C)cc1 (stereo not given)
CCC(Nc1ccc(-c2nc(-c3cccnc3)no2)cc1[N+](=O)[O-])c1ccccc1 (stereo not given)
Cc1cccc(CNS(=O)(=O)c2ccc(-c3coc(C)n3)cc2)c1
COc1ccc2c(c1)c1c(c(=O)n(-c3cccc(C)c3)c(=O)n1CC(=O)NCCC1=CCCCC1)n2C
CCOC(=O)c1c(-c2ccc(OC)c(OC)c2)csc1NC(=O)c1ccccc1F
COc1ccc(S(=O)(=O)c2nnn(-c3cccc(Cl)c3)c2N)cc1
CCOC(=O)c1cc(-c2ccc(OC)c(S(=O)(=O)N3CCN(c4ccccc4)CC3)c2)on1
Cc1ccccc1OCC(=O)Nc1ccc2nc(SCC(=O)N3CCCC3)sc2c1
Cc1cccc(N2CCN(C(=O)c3cnn(-c4ccccc4)c3C3CCN(C(=O)OC(C)(C)C)CC3)CC2)c1C
